Assay results taken from patent US9096585B2 (Icahn School of Medicine at Mount Sinai, priority 2010, dated 2015).

Legend:
[1] = tested on: influenza A virus
[2] = tested on: influenza A virus; experiment: microbe, parasite or virus in culture
[3] = tested on: influenza A virus; experiment: in vitro; settings: human
[4] = tested on: human adenovirus 5 (hAd5); format: cell-based; settings: A549, A3 10 μM, 24 h

| SMILES | inhibition of viral replication [1] [logs] | Inhibition of FluA ([1]; A549, determined by plaque assay, Table 3) [% *] | IC50 ([2]; A549, 24 h) [nM] | inhibition of influenza virus strains of both H1N1 and H3N2 subtypes ([1]; A549, […], A3 10 μM, 24 h) | time of addition at which inhibition was observed ([1]; A549, […], A3 at its CC10, not later) | reduction in viral titers ([1]; A549, […], concentration of 2 μM) [logs] | viral titers reduced ([1]; HTBE cells, […], after 24 h) [logs] | viral titers reduced ([1]; MEF cells, […], similar concentration of A3) | viral titer reduction ([1]; influenza A/WSN/33, A549, […], 10 μM A3 or less) [log] | IC50 ([2]; WSN, 24 h) [nM] | IC50 ([2]; WSN, A549, 24 h) [nM] | IC50 ([2]; WSN, A549, read-out: IC50 for influenza virus) [nM] | IC50 ([2]; WSN, MEF, 24 h) [nM] | selectivity ratio [3] | titers of human adenovirus 5 (hAd5) reduced [4] [logs] | effect on the course of infection [1] |
| --- | --- | --- | --- | --- | --- | --- | --- | --- | --- | --- | --- | --- | --- | --- | --- | --- |
| CN(c1nc(-c2ccc(Br)cc2)cs1)C1CCS(=O)(=O)C1 (centres unmarked) [Compound A35] | 4 | 99.99 | 2100 | – | – | – | – | – | – | – | – | – | – | – | – | – |
| Cc1[nH]c2ccc(-c3nnc(SCC(=O)N4CCCC4)o3)cc2c1C [Compound A3] | – | – | 540 | inhibit | up to 2 h postinfection | 4 | 4 | less than 2 logs | 2 | 40 | 178 | 178 | 1000 | 1500 | 6 | – |
| COc1cc2c(O)c3c(c(-c4ccc5c(c4)OCO5)c2cc1OC)C(=O)OC3 [Compound C2] | – | – | – | – | – | – | – | – | – | – | – | – | – | – | – | did not affect the course of infection |

Read-outs that look alike come from different tables or passages of the source. Marks after values point to notes of the source that are not given here.
